The supplement of paper PMC12632987
Over roughly 4,500 sequences, “median log2 fold change of GCK-ALFA target abundance (FLAG IP / Myc IP barcode read proportion)” has its median near 0.078; the lowest 2% begin near -0.6. The list shows a part of the results.

B1: GBRAP_184_5197 (protein)
chain: KVTEVEKKAKNLEEVKEEMEELLEEAKKNKADLHVILDLEEVTLEMVKEIMETLKEIKEKGYAPNITLELSGKMSEENIDLAIKLADEAGVNLTLALDEE
B2: GBRAP_128_3567 (protein)
chain: STAAAVAQARALLEAIKAGDAATRRAAAEALVALLAAADPETREAITAEILERLPELSAEDLEVLADVFRAARPAADPATAEALAEIQVEALNEREEKEE
B3: GBRAP_79_6748 (protein)
chain: DVEEARKALADALKVVLPELTEEELEEMVKNDEKLKEALIRAGLSEEMAEELLEAIKRIPKYSKELFEKTKERMKGLPEEEKRDLLEATVAAVIYEAEKL
B4: GBRAP_166_4873 (protein)
chain: HMEELLKKAEKEIEKLLKEASEADEEEQVELYIEIGEIIEELKEAGASLEDILELIERTLKEAKKLGLDVKKLAGIIINVTDFNEEEIDKIDEIVEKVLK
B5: GBRAP_160_4743 (protein)
chain: SEELEKLKKEIKEIFEEGIELLKESKKEEALTIVKGIMGDVIMLVESSEAASDELEDKIAEIADEAIKEVEENKDKPVEYHIKIVKEAEEKILELIEKEI
B6: GBRAP_139_3728 (protein)
chain: DPAEKAVKEVVELTKKSLETGGEYVDEIADLLNSMDEETAEKAAEAMAEVVKSESFDKAEAFWDALIDTLLTKHKNEDLATIVEAAANRALAEIAVREEA
B7: GBRAP_128_3583 (protein)
chain: SVAEARAYTRATLAAIREADPETRRALARELAERFAALSPEERRAAADTIEERLPELSPEDLELLAEALRAADTSDDPLLTELAAAVEVEALNKEEEEEE
B8: GBRAP_11_2908 (protein)
chain: KKEKLKEAAKLAEKAAKLIEQLIKNGADDKELWAEAEKAAEELLKLAKEYLDESTVELAEYALELLKKAQADPKNAQQYLNEALATVRVILGQILLAIEE
B9: GBRAP_184_5188 (protein)
chain: MIEEYEIKVENVEEAKEKIKEIAEEIKGKEAELYVIVEAEKITVEIAKVIIEGLGEIKKAGYAKKIVVEFVGEMSEEVIDVAVEGAKEAGIQVVIAMSEE
B10: GBRAP_52_6090 (protein)
chain: MMEELEEMARKIYEALKAGDLEKVTELLKELVEKYSDEEVLETIELTAKLVAEESPEEREKMLDILLEALDRVAEETGKEELMDEAAARVAAIAYESLLK
B11: GBRAP_14_3824 (protein)
chain: MEEIEKVIKEMTKELKALFAEISPEKAEELAAAVEEEAKKALEKIKETGDVEKAIREATERLVKRVKEILKDEPEEVRATAQAAVRIEWAEAEEEIDELL
B12: GBRAP_137_3651 (protein)
chain: MKIVITKSEEDGLGELTILVYDPEKAEEIAEKVLDIAHEVGADAVSIERLEDGHLEITVYGSPEKIDAFLEKFTEWLETELGLKKEESEEDGKKIYTFES
B13: GBRAP_160_4865 (protein)
chain: SEKLEKALKIVEEAEERALEIVEEAPASSRAAFAYSEMGAAILELEEEGLITDELEDELAEIADELEAELKANADASVEEHKKMVEEAFKKAKEKIKEMS
B14: GBRAP_52_6383 (protein)
chain: KVEEAAKLLKEAIKLIVEGGPKEEVEELAKEILEYDEETIEEAAKKVAEEIKKLSPEEAEKYLEATFELADILEELGLPEEVASLIEAEIGKAAYEVEQK
B15: GBRAP_52_5872 (protein)
chain: ALEKAIALLKEAIKAMLAGKEEEAKALMKEIVATFSEETILAAVKAVAEEVQTKSLEEAKAFFETVELLSDEMIAAGKDENIASEMEAIAGAALYKVEQK
B16: GBRAP_160_4037 (protein)
chain: NEKLKKLKKFAEEVFEEAKELVEGTSVEEAAVIIDVAAGEIIMEAVELGIDDDELEDFIDEIGDEAVAYLLAHPDLSEEEIKELIEEAREKVLEKIDEAE
B17: GBRAP_184_5087 (protein)
chain: KTLERLVEAETREELLAKVEEVIAEAAAEKANLTVLVDMPGLDVETALEILDLLGAARAAGAFPEATLGFAEAFTEEEADKIVARADAQGVRVVLALNEE
B18: GBRAP_166_4971 (protein)
chain: MQEELVEEFKKYIDELAEKMKTANHEEKLELLAEAAEKLKELIEKGLSDEDLKELIEYLIKKAKEVGISTSEVYGALTIIADLNEEQIDILEEAIKKVEK
B19: GBRAP_95_7049 (protein)
chain: EDDQLALDSLVEVLETYIDLGDEEKAEEAAREAVELLKELGWDAVPDDISLETAELLLREAAKHFSPEEVEALAAALKAKADTEEDKERIEAVAEEALAA

Biological target: GABARAP, O95166
Sequence (O95166 whole entry, the tested form may be a part): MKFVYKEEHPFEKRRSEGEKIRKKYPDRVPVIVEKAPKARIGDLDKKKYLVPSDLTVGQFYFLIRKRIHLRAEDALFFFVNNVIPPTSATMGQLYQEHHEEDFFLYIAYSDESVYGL
Assay: median log2 fold change of GCK-ALFA target abundance (FLAG IP / Myc IP barcode read proportion) (log2 ratio); each designed protein is fused to an ALFA-tag nanobody in HEK293 cells to bring the named protein to FLAG-tagged glucokinase (GCK); Myc marks an untargeted standard; higher = target protein stabilised (more abundant)
Settings: target protein: 3xFLAG-MCP-GCK-ALFA reporter; HEK293 landing pad (RPLP)
Procedure, shortened: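 An ALFA-nanobody-fused binder library was recombined into HEK293 landing-pad cells and induced with 2 μg mL^−1 doxycycline. Cells were transfected with a plasmid expressing a FLAG-tagged target and a Myc-tagged standard. After 48 h, lysates underwent anti-FLAG and anti-Myc immunoprecipitation, and circular RNA barcodes were reverse transcribed, amplified and sequenced. Target abundance is the per-binder median log2 ratio of FLAG to Myc barcode read proportions. Barcodes needed ≥10^−7 proportion in both replicates, binders ≥3 barcodes per replicate, and a 10^−6 pseudocount was added; the two replicates were pooled.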

Binder | median log2 fold change
B1 | 0.225
B2 | 0.197
B3 | 0.262
B4 | -0.298
B5 | 0.0899
B6 | 0.157
B7 | 0.294
B8 | 0.209
B9 | 0.0687
B10 | -0.00205
B11 | -0.0461
B12 | 0.183
B13 | 0.0751
B14 | -0.164
B15 | 0.284
B16 | -0.581
B17 | -0.0646
B18 | -0.0848
B19 | 0.16
